Assay results reported in PubChem BioAssay AID463173 (ICCB-Longwood Screening Facility, Harvard Medical School, 2010).
Among all 52,000 compounds or so, about 4,300 (8.3%) were called active. No stated cut-off is given here; in the data, active means survival mostly below about 52% (no sharp cut-off); inactive means mostly above about 56%. This is one part of the list.

tested on: DeltatarO mutant; assay: S. aureus survival, RN4220 and DeltatarO strains – OD600, teichoic acid synthesis inhibitors, primary screen (AID 463173); conditions: S. aureus RN4220 wild type/DeltatarO growth, OD600, 18 h, hits give low values, screened at 18.75 µg/mL (by protocol)

SMILES	survival
Cc1c(Cl)cccc1NC(=O)c1ncoc1-c1ccco1	inactive: 77%
Cc1ccc(NC(=O)C(C)n2nnc3sc4c(c3c2=O)CCCC4)cc1Cl (centres undefined)	inactive: 82%
CN1CC2(C)CN(C(=O)c3ccccc3Cl)CC(C)(C1)C2	inactive: 88%
Oc1ccc(NCc2ccccc2OCc2ccccc2F)cc1	inactive: 60%
CC(=O)c1ccc(NC(=O)CCCSc2nc(-c3ccco3)cc(C(F)(F)F)n2)cc1	inactive: 98%
COc1cccc(NC(=O)C2=C(C)C(=O)OC23CCN(C(C)=O)CC3)c1	inactive: 87%
c1ccc(-c2nnc(SCc3cccnc3)o2)cc1	active: 54%
COC(=O)CN1C(=O)CSc2ccc(S(=O)(=O)Nc3cccc(C)c3C)cc21	inactive: 63%
Cc1ccc(CN2CCSc3ccc(C(=O)NCC(C)c4ccccc4)cc32)cc1 (centres undefined)	inactive: 85%
CCC(=O)N1c2ccc(S(=O)(=O)NCc3ccc(F)cc3)cc2CC1C (centres undefined)	inactive: 74%
COc1cc2c(cc1OC)C(COc1ccc3c(C)cc(=O)oc3c1)N(C(=O)c1cc(Cl)ccc1OC)CC2 (centres undefined)	inactive: 61%
Cc1ccc(N(C)C(=O)C2CCN(S(=O)(=O)c3c(C)noc3/C=C/c3c(C)cc(C)cc3C)CC2)cc1	inactive: 83%
COc1cccc(OCCSc2nc(C)c(Cc3ccccc3)c(=O)[nH]2)c1	inactive: 76%
COc1ccc(NC(=O)CCCN2C(=O)CCn3nc(-c4cn(C)c5ccccc45)cc32)cc1OC	inactive: 82%
CCOC(=O)c1cccc(NC(=O)CC2C(=O)N(c3ccc(OC)cc3)C(=O)N2C2CCCC2)c1 (centres undefined)	inactive: 109%
Cc1cccc(N2CCN(S(=O)(=O)c3ccc4[nH]c5c(c4c3)CCCCC5)CC2)c1C	inactive: 86%
Cc1cccc(C(=O)NCC(=O)OCc2cc(=O)n3nc(C4CCCCC4)sc3n2)c1	inactive: 91%
COc1cc(OC)c(NC(=O)CCc2c(C)nc3cc(-c4ccccc4OC)nn3c2C)cc1Cl	inactive: 80%
CCN(CC)C(C)C#Cc1ccccc1 (centres undefined)	inactive: 95%
CC(C)OC(=O)c1c(NC(=O)C2c3ccccc3Oc3ccccc32)sc2c1CCCC2	inactive: 93%
Cc1ccc(C)c(N2CCN(C(=O)c3ccc4c(c3)N(Cc3ccc(F)cc3)C(=O)c3ccccc3S4=O)CC2)c1 (centres undefined)	inactive: 101%
CC1CCC(Nc2nc3c(-c4cccc(C(F)(F)F)c4)nnn3c3ccccc23)CC1 (centres undefined)	active: -3%
CC(CN1CCCCC1)OC(=O)CCc1ccccc1 (centres undefined)	inactive: 110%
Cc1ccc(NC(=O)C2CCCN(S(=O)(=O)c3cn(C(C)C)cn3)C2)c(C)c1 (centres undefined)	inactive: 55%
